Results published in article PMC4336329 (PLoS ONE, 2015).
Hit rate of the full screen: of about 310,000 compounds, about 2,200 (0.71%) showed an effect of 50% or more. Effects have a minus sign here. Some of the results follow.

target: human ether-à-go-go-related gene (hERG) potassium channel (human, UniProt Q12809); assay: primary screen, population patch clamp on CHO cells stably expressing hERG
Sequence (Q12809 whole entry, looked up): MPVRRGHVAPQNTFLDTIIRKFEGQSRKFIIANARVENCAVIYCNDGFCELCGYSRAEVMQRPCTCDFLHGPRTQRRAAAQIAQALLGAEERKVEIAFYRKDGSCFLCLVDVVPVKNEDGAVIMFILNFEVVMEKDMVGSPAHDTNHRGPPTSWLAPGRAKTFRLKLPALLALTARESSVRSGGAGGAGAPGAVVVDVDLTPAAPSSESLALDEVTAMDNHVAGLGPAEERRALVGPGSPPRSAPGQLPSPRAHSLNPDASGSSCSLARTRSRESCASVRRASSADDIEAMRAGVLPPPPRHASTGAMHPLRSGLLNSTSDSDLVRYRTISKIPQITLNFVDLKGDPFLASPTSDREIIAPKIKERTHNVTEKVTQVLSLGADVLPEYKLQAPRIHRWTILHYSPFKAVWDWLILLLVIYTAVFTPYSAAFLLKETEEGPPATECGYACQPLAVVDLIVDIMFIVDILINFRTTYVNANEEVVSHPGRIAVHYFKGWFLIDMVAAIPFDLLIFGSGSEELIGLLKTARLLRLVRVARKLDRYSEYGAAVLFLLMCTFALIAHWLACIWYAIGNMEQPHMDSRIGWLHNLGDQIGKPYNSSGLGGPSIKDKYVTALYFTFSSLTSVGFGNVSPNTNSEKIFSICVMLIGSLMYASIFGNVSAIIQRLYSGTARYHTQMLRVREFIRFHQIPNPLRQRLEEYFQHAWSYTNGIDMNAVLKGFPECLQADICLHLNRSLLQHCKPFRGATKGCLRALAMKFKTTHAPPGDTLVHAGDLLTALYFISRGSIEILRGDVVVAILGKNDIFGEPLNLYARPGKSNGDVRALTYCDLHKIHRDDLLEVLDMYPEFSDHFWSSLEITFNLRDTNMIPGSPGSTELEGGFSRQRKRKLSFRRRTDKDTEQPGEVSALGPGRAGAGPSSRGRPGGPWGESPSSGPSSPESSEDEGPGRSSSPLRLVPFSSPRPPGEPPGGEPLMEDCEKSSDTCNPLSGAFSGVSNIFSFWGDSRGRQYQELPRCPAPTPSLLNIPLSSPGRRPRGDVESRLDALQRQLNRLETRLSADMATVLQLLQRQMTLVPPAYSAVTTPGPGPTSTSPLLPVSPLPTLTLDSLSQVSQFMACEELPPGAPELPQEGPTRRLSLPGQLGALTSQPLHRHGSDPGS

| Compound | hERG current change (%, negative = inhibition) at 1uM |
| --- | --- |
| O=C(NCc1ccccn1)c1ccc2nc(C3CCCCC3)oc2c1 | 19.7% |
| Cc1ccc(CNC(=O)c2cc3ccccc3oc2=O)cc1 | 11.6% |
| CCCCCCc1c(C)nc(-n2[nH]c(C)c(CCO)c2=O)[nH]c1=O | 6.3% |
| O=C(Cn1cnc2ccccc21)c1ccc(Br)cc1 | 3.54% |
| CCOc1ccc(OCC)c(Nc2cc(C)nc3ncnn23)c1 | -7.97% |
| CCOC(=O)C1=C(c2ccccc2)NC(=S)NC1c1ccc(C)c([N+](=O)[O-])c1 (stereo not drawn) | 2.13% |
| CCc1cc2ccccc2nc1Cl | 5.34% |
| CCn1nc(CC(=O)Nc2nnc(CC(=O)N3CCCC3)s2)c2ccccc2c1=O | 4.7% |
| Oc1ccc(-c2nc3ccccc3nc2-c2ccccc2)cc1 | 8.65% |
| COC(=O)c1sc2cc(C(F)(F)F)cnc2c1-c1cccnc1 | 9.19% |
| O=[N+]([O-])c1cccc(NC(=S)Nc2nc(-c3ccc(Cl)cc3Cl)cs2)c1 | 5.97% |
| Clc1ccc(-c2nc(/C=N/N3CCOCC3)c3ccccn23)cc1 | 7.64% |
| Cc1c(Cc2ccccc2)c(=O)oc2c(C)c(OCC(=O)N[C@@H](Cc3ccccc3)C(=O)O)ccc12 | 5.64% |
| Cc1cc2c3c(c1C)C1(C(=O)N3C(C)(C)CC2C)C(C#N)=C(N)Oc2n[nH]c(C)c21 (stereo not drawn) | -0.155% |
| Cc1csc(SCC(=O)NC(=O)NCCC(C)C)n1 | -2.18% |
| CCCN(CCC)C(=O)C1CC(=O)OC12CCOC(C)(C)C2 (stereo not drawn) | 11% |
| CCC(=O)N1c2ccc(S(=O)(=O)CCC(=O)Nc3ccc(OC)cc3OC)cc2CC1C (stereo not drawn) | 13.1% |
| O=C(c1cc2ccccc2c(=O)o1)N1CCCc2ccccc21 | 12.5% |
| Cc1cc2oc(=O)ccc2cc1[N+](=O)[O-] | 13.6% |
| COc1cc(OC)cc(C(=O)OCC(=O)Nc2ccc(F)cc2F)c1 | 8.11% |
| O=C(c1cc(-c2ccc(F)cc2)on1)N1CCOCC1 | 12.5% |
| COc1ccc(Cl)cc1NC(=O)CN(C)C(=O)c1ccc(N2CCCCCC2)c([N+](=O)[O-])c1 | 11.2% |
| CC(C)C1Nc2ccc(C(=O)NCCCN3CCOCC3)cc2NC1=O (stereo not drawn) | 10% |
| COc1cc(C(C(=O)NC2CCCC2)N(CCO)C(=O)Cn2nnc(-c3ccc(C)o3)n2)ccc1O (stereo not drawn) | 11.9% |
